# Results as given in the supplement of paper PMC11417369.
# The list shows a part of the results.
# Test system: PfSIP2 AP2 domain 1 (GST-tagged)
# Assay: gcPBM binding intensity (ln(normalized median fluorescence intensity)); higher = stronger DNA binding
# Outline: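 After 1 h on an Agilent 4 × 180k array of primer-extended double-stranded 36-bp intergenic genomic probes and negative controls, bound GST-tagged P. falciparum DNA-binding domains were detected with Alexa488 anti-GST antibody and scanned at 488 nm. The domains had been expressed in E. coli, and binding took place in 1× PBS with 1% milk, 0.2 mg/ml BSA, 0.5% salmon testes DNA and 0.03% Triton X-100. Binding intensity is the highest Masliner-normalised natural-log median intensity across replicate spots of either probe orientation.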
row,Sequence,gcPBM binding intensity (ln)
1,TATACATATATATATTGTACATATTATATATATATA [XGTACX_site3286],8.98
2,ATATATATATATATATGTACATATTGTATCTTATAC [XGTACX_site5466],9.35
3,TTATATTTAGTATATGCACACTTTATGTTTGTTATT [CACACA_site5163],7.74
4,TATAAATACGAACACACACACCTTATAATTACTACT [CACACA_site7827],6.98
5,AAGAAAGGTTAAACATGTACATAAATATTTTACATA [XGTACX_site5024],7
6,AAAAACCATTGGCACACACACATAATATATAATATA [CACACA_site4903],7.09
7,TATCTTTTTATTTTTTATTTTTTTTTTATAATTTAC [XGTACX_negctrl_site414],6.81
8,ACACATATGTCTTCATGTACATAATATATAAATCTT [XGTACX_site3438],7.26
9,TCATTGAAAATTGTTGCACACATAATAATTAAATAT [CACACA_site8554],7.36
10,CATAAATCAGCCATAACACACATACATATATACATA [CACACA_site8025],6.93
11,TCTTGTTTATCAACAGCACACACAACAACAACAACA [CACACA_site8046],7.56
12,TATATATATACAGTTGCATGTTGTGTTTAAAATTTT [TGCATGCA_site816],8.47
13,TGTTAAAAAATGGATGCACACATTAAATAAAAAGTA [CACACA_site1660],8.9
14,TAAAGGTAGATATATTGTACATACACACCTATATAA [XGTACX_site6865],6.8
15,TATATATATATATAATGTACTTATATTTTTTTGAGG [XGTACX_site2638],9.46
16,ATATGTATAAGTATGTATATTTATTTATACTTATGT [GTGCAC_negctrl_site221],7.07
17,TTAATTAAAACGAATACACACATAAATATGTAAAAG [CACACA_site6707],7.04
18,AAAAAAAAAAAAAAAAGTACATATATATATTTATAT [XGTACX_site5893],7.46
19,TTCTATTCACATTTTACACACGTCCATCGCATTTTA [CACACA_site3453],7.28
20,TTTTAAATTTAATTTACACACTTTTCATAGCATTGA [CACACA_site3794],6.74
21,ATTGTGCTCATCAGCACACACAACATCATGTAATAA [CACACA_site1863],7.2
22,TTATATTTATAAAATTGTATACCCCTTCTAACTTTC [CACACA_negctrl_site250],6.96
23,TATATATATGGTTTAACACACGAGATAAAAGTATAT [CACACA_site2867],7.23

row,Sequence,gcPBM binding intensity (ln)
1,TATATGGTATGTATTACACACATATCACATATAGAT [CACACA_site7426],6.89
2,ACATTTAATGTTATATGTACATAATATTATAAGTAT [XGTACX_site1393],7.19
3,CATATGGCAATAATTACATGCAAAAAAAAAAAAAAA [TGCATGCA_site578],6.95
4,AGCCATATCTTTTTTGCACACACTACAATAAAACAA [CACACA_site1650],7.65
5,AATGTAAAAGTAAACACACACATATATTTATACATA [CACACA_site7218],6.81
6,ACAGACGTTCAAAGGTGTACGCAAAATGAATAATAT [XGTACX_site7565],7.14
7,GTAAATCGACACATACGTACATACATTTATATATAT [XGTACX_site3143],7.57
8,AAAAAAAAGAAAAACACACACATATATATATATAAT [CACACA_site4707],6.97
9,TTCTTATTTAATGTATCACACACGAGAATAAAAAAT [CACACA_site8992],7.23
10,AAAAAAAAAAACGACAGTACAATTATAATTTATATT [XGTACX_site2365],6.95
11,AGAGTTAAACGATATATATAAATATATATATATATA [GTGCAC_negctrl_site316],9.18
12,ATGTCTTAAAAATTAAAACACACGTTCACTTTCATA [CACACA_site3385],6.9
13,AGATCATAATATTATACACACATTAGATATAGGTAA [CACACA_site6809],7
14,AAATGTAATTTGTCTTTTATTTATATTTGACATGAT [TGCATGCA_negctrl_site520],6.93
15,ATATTAATGATATATACACACATAAGTATTGTATAT [CACACA_site7844],6.91
16,TTGATGGGAAAAAACTTTTTTTTCTTTTTTTCTTTC [CACACA_negctrl_site328],6.45
17,AAAAATTATAAAAAACAAATATTAAATAATTATTAA [GTGCAC_negctrl_site125],6.67
18,TTTTTTTTTTTTTTTTTTTTTTTGCTCAGTGTGGTA [CACACA_negctrl_site29],6.99
19,TATCACCCACCATGAAGTACATATTACCATTTGATG [XGTACX_site845],6.83
20,ATAAATAAATAAAAGCGTACATATATATAAAATATA [XGTACX_site8107],6.98
21,AAAAGGAAGATATATACACACATACAAATATTTATA [CACACA_site7093],6.84
22,TTATACTAAATGAACACACACACATATATATATATA [CACACA_site99],9.48
23,AATTAAATGTTTCTAAGATATACGACCAATGTATTT [CACACA_negctrl_site1694],6.78

row,Sequence,gcPBM binding intensity (ln)
1,AATTAATGGGTACATACACACATATATACATACATA [CACACA_site742],7.18
2,TGTATTATCTCTTATGAACACACATTTTTATTTTCA [CACACA_site9107],7.09
3,ATGTTAATTAATGAGGTGCATTGAATATTTCAATAA,10.6
4,CATCAATGCTAATTATGTACTTACATAAATAACCCT [XGTACX_site968],7.05
5,ATACCTAAAAAATATACACACATATATATAAATATA [CACACA_site2580],7.12
6,TGGTGAAAAATATAAATATAAATAAATATATATATA [CACACA_negctrl_site1725],8.73
7,AGAAGAAAACAAAACACACACATATATCTTAATATA [CACACA_site2231],6.82
8,AAAAAAAAAAACTTTGCATGTAATAATAAAAAAAAA [TGCATGCA_site81],6.8
9,ATGATCTGTTTGTTTGTGCACATATATATATATTAA,9.2
10,TATATATTACATAAAACACACAAAAAAAAAATTAAA [CACACA_site3882],6.94
11,TTTATATTTTTTTTTGCACACTTTAAAAAAATATAT [CACACA_site1146],7.4
12,AAATAAATTGAAGATACATGCATATTTTTTTTTTAT [TGCATGCA_site686],6.84
13,ATGTAGAGTAATAGTTGTACAAGGTGTATATCTCAT [XGTACX_site6370],6.96
14,AAACTATACCAAAACACACATACAAAATATAAAAAA [CACACA_site2707],6.98
15,ATTTTCAAATTATCAGATGAATCTTTTTAAGATCTT [XGTACX_negctrl_site598],6.55
16,CTCATATATAACACATGTACACAGATTTTGCAAATG [XGTACX_site6879],7.51
17,GTCTGCATATGGATACGTACACATATATATTAATGT [XGTACX_site2260],7.47
18,TTTTTTTTTTTTTTTTTACACACTGCATACAAGAAA [CACACA_site3026],7.08
19,GGGAAAAAATGAGGTCGTACATTTTTCATCACAAAT [XGTACX_site8920],6.96
20,AATGAATGTACATACGCATGTACTTGACTAAATTAT [TGCATGCA_site436],7.01
21,TGGTAATACCCATACACACACACATACCCATATATA [CACACA_site5509],6.99
22,ATAAATAAAACAACAGTGCAATAAAATTAGTTGAGG,7.5
23,TTTTTTATGAGGTGGTGTACTTTTTTTTTTTTCTTT [XGTACX_site8550],7.29

row,Sequence,gcPBM binding intensity (ln)
1,CAAGAAACAGTGATACGTACACATATATATATATAT [XGTACX_site3229],9.25
2,TTCAAATAAATAGTAGTGCATATTTATTAATGTAAA,9.3
3,ATTAAAGAGAGACATCAACACACATACGTATGTATA [CACACA_site8393],6.94
4,TAATATATTATAAACACATGCACATTAATAATAACT [TGCATGCA_site708],9.16
5,TATTTTTTAAAAAAACGTACAAACATAATAAAAATA [XGTACX_site1857],7.52
6,ATAGACATTTTACTTTGTACATATAAACATATATAT [XGTACX_site2733],7.11
7,TATATATATATATATGTGCACATTTTATTAAAATGT,9.6
8,ATATGAAACATGAAGGTGCATAATGTGTATATTTAT,10.8
9,ACATAAATATATTTTTCACACATCATTAGTTATGAA [CACACA_site4724],7.03
10,AAGGTATGATTAATCACACACATAAATATAAATACA [CACACA_site5464],6.99
11,AAGCTTCATTAATATACACACATATATGTGTATATT [CACACA_site7693],6.89
12,AATAAAGAAGAAGAAAGTACACATTTCACAAAGGGG [XGTACX_site1308],7.29
13,GATATATGTATAATAACGCACACTACAAAAATAAAA [CACACA_site2100],7.41
14,ATAAAATATAGGTATGCACACACATATACTTCTGTG [CACACA_site8398],9.39
15,TATATAATACGAATTTGTACATATTAAATAAATTAT [XGTACX_site93],6.84
16,GTTAGTTTTAGTTCATGTACATAATAGAAAATATAT [XGTACX_site7125],7.63
17,TTTTTTCTTTTCAAGGTGCTTTATAAGAAAAAGGGA [GTGCAC_site9858],7.79
18,AAAAAAAAAAAAAACACACACACACCCAAATACATA [CACACA_site708],7.46
19,TATTTTATCATTTGCACACGCACACCCACATAAAAA [CACACA_site354],8.03
20,TATATTAAAACAAGCACACAATCGCATAATATCCTT [CACACA_site3210],6.71
21,AGTATTATATTTTCTTGTACACATGTAAAATACCTC [XGTACX_site1359],7.17
